Results published in the supplement of paper PMC4967469.

Legend:
Test in all cases: Viability of human cancer cell lines after 72 h of drug (GDSC screen)
CCT007093 = compound: O=C1/C(=C/c2cccs2)CC/C1=C\c1cccs1 [CCT007093]; conditions: top dose 6.6 µM; top dose inferred
Experimental: (§1)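 Human cancer cell lines in 384-well plates, medium with 10% serum, drug for 72 h over a 256-fold dose range (nine 2-fold or five 4-fold steps up to the top dose). Adherent lines were fixed and stained with the nucleic acid dye Syto60, suspension lines read with resazurin; signal relative to control wells, capped at 0 and 100%. One two-parameter sigmoid per drug and line, fitted in a mixed model over all curves with the slope shared within a line.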

KIN001-266 = compound: CCN1CCC(n2cc(CNc3cc(Cl)c4ncc(C#N)c(Nc5ccc(F)c(Cl)c5)c4c3)nn2)CC1 [KIN001-266]; conditions: top dose 20 µM; top dose inferred
Experimental: as §1

QL-XII-47 = compound: C=CC(=O)N1CCc2ccc(-n3c(=O)ccc4cnc5ccc(-c6cnn(C)c6)cc5c43)cc21 [QL-XII-47]; conditions: top dose 10.24 µM; top dose inferred
Experimental: as §1

BAY 61-3606 = compound: COc1ccc(-c2cc3nccn3c(Nc3ncccc3C(N)=O)n2)cc1OC [BAY 61-3606]; conditions: top dose 8 µM; top dose inferred
Experimental: as §1

Cell Line | AUC (CCT007093) | IC50 (CCT007093) [µM] | AUC (KIN001-266) | IC50 (KIN001-266) [µM] | AUC (QL-XII-47) | IC50 (QL-XII-47) [µM] | AUC (BAY 61-3606) | IC50 (BAY 61-3606) [µM]
A704 (kidney, adherent) | 0.978 | > 6.6 | 0.863 | 16.4 | 0.857 | 7.91 | 0.977 | > 8
A2058 (melanoma, adherent) | 0.977 | > 6.6 | 0.893 | 19.3 | 0.533 | 0.777 | 0.942 | > 8
A2780 (ovary, semi-adherent) | 0.951 | > 6.6 | 0.817 | 11.7 | 0.413 | 0.365 | 0.686 | 1.69
ABC-1 (lung adenocarcinoma, adherent) | 0.974 | > 6.6 | 0.931 | > 20 | 0.646 | 1.77 | 0.843 | 7.5
ACHN (kidney, adherent) | 0.965 | > 6.6 | 0.889 | > 20 | 0.748 | 3.71 | 0.659 | 1.48
AGS (stomach, adherent) | 0.986 | > 6.6 | 0.862 | 14.3 | 0.81 | 4.7 | 0.854 | 5.31
ALL-PO (lymphoblastic leukaemia, suspension) | 0.965 | > 6.6 | 0.721 | 5.53 | 0.536 | 0.805 | 0.519 | 0.564
ALL-SIL (T-cell leukaemia, suspension) | 0.984 | > 6.6 | 0.86 | 13.1 | 0.535 | 0.787 | 0.717 | 1.85
AM-38 (glioma, semi-adherent) | 0.967 | > 6.6 | 0.858 | 16.9 | 0.652 | 1.71 | 0.888 | > 8
AMO-1 (haematopoietic neoplasm, suspension) | 0.991 | > 6.6 | 0.671 | 3.45 | 0.838 | 5.58 | 0.878 | 6.14
AN3-CA (endometrium, adherent) | 0.976 | > 6.6 | 0.857 | 18.8 | 0.743 | 3.42 | 0.799 | 4.27
ARH-77 (myeloma, suspension) | 0.983 | > 6.6 | 0.88 | 19.3 | 0.589 | 1.11 | 0.766 | 2.86
ASH-3 (thyroid, adherent) | 0.984 | > 6.6 | 0.981 | > 20 | 0.654 | 1.71 | 0.577 | 0.814
ATN-1 (T-cell lymphoblastic leukaemia, suspension) | 0.972 | > 6.6 | 0.874 | 17.3 | 0.508 | 0.673 | 0.942 | > 8
AU565 (breast, adherent) | 0.759 | 2.54 | 0.859 | 19.8 | 0.797 | 5.45 | 0.849 | –
AsPC-1 (pancreas, adherent) | 0.946 | > 6.6 | 0.94 | > 20 | 0.897 | > 10.2 | 0.966 | > 8

Cell Line | AUC (CCT007093) | IC50 (CCT007093) [µM] | AUC (KIN001-266) | IC50 (KIN001-266) [µM] | AUC (QL-XII-47) | IC50 (QL-XII-47) [µM] | AUC (BAY 61-3606) | IC50 (BAY 61-3606) [µM]
BB30-HNC (head and neck, adherent) | 0.981 | > 6.6 | 0.861 | 16.4 | 0.655 | 1.7 | 0.768 | 2.93
BB65-RCC (kidney, adherent) | 0.979 | > 6.6 | 0.848 | 18.4 | 0.462 | 0.497 | 0.827 | 5.88
BC-1 (B-cell lymphoma, suspension) | 0.989 | > 6.6 | 0.837 | 10.7 | 0.294 | 0.187 | 0.656 | 1.26
BCPAP (thyroid, adherent) | 0.926 | > 6.6 | 0.782 | 7.55 | 0.74 | 2.86 | 0.768 | 2.73
BE2-M17 (neuroblastoma, adherent) | 0.975 | > 6.6 | 0.894 | > 20 | 0.98 | > 10.2 | 0.827 | 5.08
BE-13 (lymphoblastic leukaemia, suspension) | 0.956 | > 6.6 | 0.844 | 13 | 0.723 | 2.62 | 0.787 | 3.24
BEN (non-small cell lung carcinoma, adherent) | 0.982 | > 6.6 | 0.873 | > 20 | 0.919 | > 10.2 | 0.968 | > 8
BFTC-905 (bladder, adherent) | 0.99 | > 6.6 | 0.889 | 17.2 | 0.564 | 0.931 | 0.755 | 2.37
BFTC-909 (kidney, adherent) | 0.985 | > 6.6 | 0.912 | > 20 | 0.828 | 6.14 | 0.948 | > 8
BHT-101 (thyroid, adherent) | 0.984 | > 6.6 | 0.853 | 16.4 | 0.634 | 1.52 | 0.961 | > 8
BHY (head and neck, adherent) | 0.984 | > 6.6 | 0.793 | 9.13 | 0.343 | 0.234 | 0.765 | 2.93
BICR10 (head and neck, adherent) | 0.985 | > 6.6 | 0.983 | > 20 | 0.874 | > 10.2 | 0.956 | > 8
BICR22 (head and neck, adherent) | 0.968 | > 6.6 | 0.976 | > 20 | 0.95 | > 10.2 | 0.983 | > 8
BICR78 (head and neck, adherent) | 0.951 | > 6.6 | 0.922 | > 20 | 0.852 | 9.88 | 0.972 | > 8
BL-41 (Burkitt lymphoma, suspension) | 0.994 | > 6.6 | 0.834 | 8.94 | 0.254 | 0.156 | 0.696 | 1.52

By IC50 is meant the dose at which the fit gives 50% viability; where the fit passes the top or lowest dose, that dose stands as a limit. AUC sums up the same curve from the lowest dose to the 256-fold higher top dose: 1 means no effect, lower means more sensitive. Any top dose called inferred comes from the curve model; the source does not state it.
